Measured values published in patent publication US11883383B2, “Pharmaceutically acceptable salts of [3-(4- {2-butyl-1-[4-(4-chloro-phenoxy)-phenyl]-1H-imidazol-4-yl} -phenoxy)-propyl]-diethyl-amine” (vTv Therapeutics LLC, priority 2018, dated 2024).
Some values that stand alone complete this part of the results.

Experiment: Differential scanning calorimetry (DSC) endotherms of crystalline hits
Type: physicochemical
Conditions: onset temperature
Description: TGA data were collected using a TA Q500 and Q550 from TA Instruments. DSC was performed using a TA Q2000 from TA Instruments. DSC was calibrated with Indium reference standard and the TGA was calibrated using nickel reference standard.
All hits were further characterized by TGA and DSC, with the stoichiometry determined by ^1H NMR or HPLC/IC. Based on the characterization data in Table 2 below, most of them were considered to be anhydrates.

Which “DSC Endo. (onset, ° C.)” value (first endotherm) does the source give for `CCCCc1nc(-c2ccc(OCCCN(CC)CC)cc2)cn1-c1ccc(Oc2ccc(Cl)cc2)cc1.O=C(O)c1cc(O)ccc1O` [Gentisate Type A] here?
The value was 89.9 °C.

What about the “DSC Endo. (onset, ° C.)” value (second endotherm) of the same compound?
The value was 129.2 °C.

Which “DSC Endo. (onset, ° C.)” value (minor endotherm) does the source give for `Br.CCCCc1nc(-c2ccc(OCCCN(CC)CC)cc2)cn1-c1ccc(Oc2ccc(Cl)cc2)cc1` [HBr salt Type B] here?
Its value is 167.5 °C.

And the “DSC Endo. (onset, ° C.)” value (second endotherm)?
The value was 231.5 °C.
